Reference: ChEMBL document CHEMBL1201862, “PubChem BioAssay data set” (2004)
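96-well plates; 48 h exposure; 5 concentrations. Endpoints by linear interpolation between flanking doses. Not reached: highest tested concentration assigned. GI50 is the concentration that inhibits growth by half.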 Calls of active or inactive are those of the source. Cut-off read from the data, not from the text of the source: active = GI50 up to about 1.1 µM and inactive = higher. Peptide text beside a SMILES is read from it. * marks the point of attachment. Boc = CC(C)(C)OC(=O)*

test system: NCI-H322M; test: inhibition of tumour cell growth, NCI panel, 48 h

Compound	GI50
OC1(c2ccc(Cl)cc2)c2ccc(CN3CCCC3)cc2C2=NCCN21 (configuration not stated)	inactive: 13 µM
N#Cc1cccc(C2C(=O)c3ccc(C(=O)c4ccc5c(c4)C(=O)N(c4ccc(Oc6ccc(N7C(=O)c8ccc(C(=O)c9ccc%10c(c9)C(=O)N(c9cccc(C#N)c9)C%10=O)cc8C7=O)cc6)cc4)C5=O)cc3C2=O)c1 (configuration not stated)	inactive: > 100 µM
c1ccc2c(c1)nc1n2CNCC1	inactive: > 100 µM
COC(=O)C1Cc2c([nH]c3ccccc23)C(c2ccccc2O)N1Cc1ccccc1 (configuration not stated)	inactive: 28.4 µM
CCOC(=O)C1N(S(=O)(=O)c2ccc(C)cc2)CCC12c1ccccc1NC2c1ccc(OC)c(OC)c1 (configuration not stated)	inactive: > 100 µM
Cc1ccc(S(=O)(=O)N/N=C(\c2nc3ccc(Cl)cc3[nH]c2=O)C(O)c2ccco2)cc1 (configuration not stated)	inactive: > 100 µM
CN(C)/N=N/c1nc2c(c(=O)n(C)c(=O)n2C)n1C	inactive: > 100 µM
CS(=O)(=O)NNS(=O)(=O)c1ccc(Br)cc1	inactive: > 100 µM
CCSC1=N/C(=C\c2ccco2)C(=O)N1	inactive: > 100 µM
COc1ccc(/C=C2/SC(c3c(O)ccc4ccccc34)N(NC(=O)CCCCCCCCC(=O)NN3C(=O)/C(=C\c4ccc(OC)c(OC)c4)SC3c3c(O)ccc4ccccc34)C2=O)cc1OC (configuration not stated)	active: 0.434 µM
Cc1ccc(S(=O)(=O)NNC(=O)c2cc(C)c(C)cc2N)cc1	inactive: > 100 µM
N#CC1=C(c2ccccc2)C(O)(c2ccccc2)NC1=O (configuration not stated)	inactive: > 100 µM
N#CC(C#N)=C1NC(=O)CC(=O)N1	inactive: > 100 µM
COC(=O)C1=C2CCC(=O)[C@@]2(C)C(OC(C)=O)C=CC1 (some centres not stated)	inactive: > 100 µM
Cc1nc(O)c(Cc2ccccc2O)c(-c2ccccc2)n1	inactive: 37.4 µM
CC1(C)CC(=O)C(=CNC(N)=S)C(=O)C1	inactive: > 100 µM
Nc1nc(S)nc(C(=O)Nc2ccc(Cl)c(Cl)c2)c1-c1ccc(Cl)cc1	inactive: > 100 µM
COc1cc(C2c3cc4c(cc3[C@@H](NCCN3CCCCC3)C3COC(=O)[C@H]23)OCO4)cc(OC)c1O (some centres not stated)	inactive: 3.14 µM
CNC(=S)/C(C#N)=C(\N)N1CCCC1	inactive: > 100 µM
COC(=O)C(Cc1ccccc1)NP(=O)(O)OCC1OC(n2ccc(N)nc2=O)C(O)C1O (configuration not stated)	inactive: > 100 µM
CCOC(=O)Cn1c(=O)c2cc(-c3ccccc3)cc3c(Cl)nc4c(OC)c(OC)cc1c4c32	inactive: 10.8 µM
Clc1ccc(Nc2nc3ccccc3nc2-c2cccs2)cc1Cl	inactive: 49.3 µM
COC(=O)NC(=O)NC(Cc1ccccc1)NC(=O)OCc1ccccc1 (configuration not stated)	inactive: > 100 µM

Compound	GI50
CN1CCN(P2(=S)Oc3ccc4ccccc4c3-c3c(ccc4ccccc34)O2)CC1	inactive: 54.8 µM
COc1cc(C(=O)C2CC3(CCC2(O)c2cc(OC)c(OC)c(OC)c2)CC(=O)Nc2ccccc2C3=O)cc(OC)c1OC (configuration not stated)	inactive: > 100 µM
Clc1ccc(/C=N/C23CC4CC(CC(C4)C2)C3)cc1Cl	inactive: > 10 µM
CN1CN(C2OC(CO)C(O)C2O)c2nc(N)[nH]c(=O)c21 (configuration not stated)	inactive: > 100 µM
CC(C)C(=O)/C=C/c1ccc(Cl)cc1	inactive: 29.9 µM
COC(=O)C1=C(O)C(C(=O)OC)[C@]2(O)[C@H](C(=O)OC)[C@H]1C[C@@H](c1ccccc1OC)[C@H]2C(=O)OC (some centres not stated)	inactive: 11.3 µM
O=C(O)C12C3CCC(CC3)C1(C(=O)O)C1CCC2C1 (configuration not stated)	inactive: > 100 µM
CC(=O)OCC1OC(n2nc(Cc3ccccc3)c(=S)[nH]c2=S)C(OC(C)=O)C(OC(C)=O)C1OC(C)=O (configuration not stated)	inactive: 28.8 µM
C[Si](C)(C)/C=C/CCC(C=O)(CCCl)c1ccccc1 (configuration not stated)	inactive: 33.3 µM
O=c1c2cc(I)ccc2nc(-c2cccs2)n1Nc1ccccc1	active: 0.805 µM
NNC1=N/C(=C\c2ccco2)C(=O)N1	inactive: > 100 µM
CCN(CC)P1(=S)Oc2ccc3ccccc3c2-c2c(ccc3ccccc23)O1	inactive: > 100 µM
C[s+]1c2ccccc2c2ccccc21	inactive: > 100 µM
N#CCCN(CCC#N)c1ccc(C(=N/c2ccc(Cl)cc2)/N=N/c2ccc(Cl)cc2)cc1	inactive: 24.1 µM
NC(=O)CN1CC(C2=C(O)CN(CC(N)=O)C2=O)=CC1=O	inactive: > 100 µM
COc1nc(NC2OC(COC(C)=O)C(OC(C)=O)C(OC(C)=O)C2OC(C)=O)c(/N=C/C=N/c2c(NC3OC(COC(C)=O)C(OC(C)=O)C(OC(C)=O)C3OC(C)=O)nc(OC)n(C)c2=O)c(=O)n1C (configuration not stated)	inactive: > 100 µM
COC(=O)/C=C/[C@H]1[C@H](C)N1S(=O)(=O)c1ccc(C)cc1 (some centres not stated)	inactive: > 100 µM
CCOC(=O)/C(=C/c1ccc(OC)cc1)N(CC)CC	inactive: > 100 µM
CCN(CC)CC(=O)O[C@]1(CC)C(=O)OCc2c1cc1n(c2=O)Cc2cc3ccccc3nc2-1	active: 0.0723 µM
O=C1Nc2ccccc2/C1=N/NC(=S)N1CCCCC1	active: 0.0895 µM
CN(C)Cc1ccc(O)c(CN(C)C)n1	inactive: > 100 µM
CN(C)CC(NC(NCS)C(=O)NCCNc1ccc(NCCNC(=O)C(NCS)NC(CN(C)C)OCCl)c2c1C(=O)c1c(O)ccc(O)c1C2=O)OCCl (configuration not stated)	active: 0.52 µM
CC(C)(C)CC(C)(C)c1ccc(O)c(C[N+](C)(C)[O-])c1	inactive: > 100 µM

Compound	GI50
O=C1CCC2=C(CCC2)N1CCc1ccc2c(c1)OCO2	inactive: 51.8 µM
N#Cc1nc(-c2ccccc2C(=O)O)oc1N	inactive: > 100 µM
C/C(=N/NC(=S)Nc1cccc(Cl)c1)c1ccccn1	active: 0.0453 µM
CCOC(=O)C(C)Sc1nnc(COc2ccc(Cl)cc2)n1-c1ccccc1 (configuration not stated)	inactive: 27.7 µM
CCCCCCCCCCNC(=S)OCCCC	inactive: 34.1 µM
O=[N+]([O-])c1ccc(/C=C/c2cc(-c3ccccc3)nc3ccc4ccccc4c23)cc1	inactive: > 100 µM
CCN(CC)c1ccc(/C=c2\nc(-c3ccccc3)n3c2nc2ccccc23)cc1	inactive: 1.73 µM
COc1ccc(NC(=O)CC/C(CC(=O)c2ccco2)=N/NC(=O)C(N)=O)cc1	inactive: > 100 µM
COc1ccc(C[C@H](N)C(=O)NC2C(CO)OC(n3cnc4c(N(C)C)ncnc43)C2O)cc1 (some centres not stated)	active: 0.467 µM
O=Cc1ccc2c(c1)CC1(C2)Cc2ccc3c(c2C1)CCC3 (configuration not stated)	inactive: 16.9 µM
CC1(C)C(=O)/C=C\C(=O)C(C)(C)C2=CC=C(O2)C(C)(C)C(=O)/C=C\C(=O)C(C)(C)C2=CC=C1O2	inactive: > 100 µM
COc1nc(NC2OCC(OC(C)=O)C(OC(C)=O)C2OC(C)=O)c(/N=C(\C)C(C)=O)c(=O)n1C (configuration not stated)	inactive: > 100 µM
NC1=NN(c2ccccc2)C(=O)C1C(=O)C(=O)Nc1cccc(C(F)(F)F)c1 (configuration not stated)	inactive: > 100 µM
COc1ccc(Nc2nc3ccccc3nc2-c2cccs2)cc1OC	inactive: > 10 µM
CC(C)(C)c1cc(C2NC(=O)NC2=O)cc(C(C)(C)C)c1O (configuration not stated)	inactive: > 100 µM
COc1ccc2c(c1)O[C@@H]1c3ccc(OC)cc3OC[C@H]21	inactive: > 100 µM
O=C(O)C1CCCCC1C(=O)Nc1nc2ccccc2[nH]1 (configuration not stated)	inactive: > 100 µM
Cc1nc2c3c(ncn2n1)Oc1c(c(-c2ccccc2)nn1-c1ccccc1)C3c1ccc(Cl)cc1 (configuration not stated)	inactive: > 100 µM
CCCC1=C(CC)C(C(=O)Nc2c(C)cccc2C)=NC(S)N1 (configuration not stated)	inactive: > 100 µM
N=C(N)NCCCC(Nc1c2ccccc2[n+]([O-])c2ccccc12)C(=O)O (configuration not stated)	inactive: > 100 µM
CCOC(=O)CC(C)C1(C(=O)OCC)CCCCC1=O (configuration not stated)	inactive: > 100 µM
COc1ccc(Oc2nc3cc(C(F)(F)F)ccc3nc2C(C)C)cc1	inactive: 33.3 µM
CCOC(=O)c1c(NC(=O)OC)c(C#N)c2n1CCCCC2	inactive: > 100 µM

Compound	GI50
N=C1N=C(N)c2cc3c(cc21)SCCSCCCSCCS3	inactive: 25.2 µM
Oc1cc(-c2ccc3ccccc3c2)nc2ncc(Cl)cc12	inactive: 4.91 µM
O=C(C(=O)N1CCc2ccccc21)c1c[nH]c2ccccc12	inactive: > 10 µM
C/C(=N\NS(=O)(=O)c1c(C)cc(C)cc1C)c1ccc[n+]([O-])n1	inactive: 45.1 µM
CN(C)c1ccc(/C=C2\N=C(N/N=C/c3ccccc3)NC2=O)cc1	inactive: > 100 µM
C#CCNC(=O)NCCCC(NC(C)=O)C(=O)NCc1ccccc1 (configuration not stated)	inactive: > 100 µM
CC(C)(C)OC(=O)NC(Cc1ccccc1)C(=O)N1CCCC1C(N)=O (stereo not drawn) (Boc-Phe-Pro-NH2; configuration not given here)	inactive: > 100 µM
Cc1c2oc(=O)c(C#N)cc2c2ccccn12	inactive: > 100 µM
Cc1cc(C)c(N[S+]([O-])c2cccc([N+](=O)[O-])c2)c(C)c1 (configuration not stated)	inactive: > 100 µM
CCOC(=O)CN1CC(C2=C(O)CN(CC(=O)OCC)C2=O)=CC1=O	inactive: > 100 µM
CC(C)(C)C(=O)/C=C/c1cccc(Oc2ccccc2)c1	inactive: 18 µM
NC(CNO)C(=O)O (configuration not stated)	inactive: > 100 µM
COP(C)(=O)C1=CCN(C(=O)OCC[Si](C)(C)C)CC1 (configuration not stated)	inactive: > 100 µM
CC(=O)O[C@H]1C=CC23OC(=O)[C@]1(C)[C@H]2[C@H](C(=O)O)C12CC(=O)[C@@](CO)(CC[C@H]13)C2	inactive: > 100 µM
Cc1nnc2sc(Cl)nn12	active: 0.434 µM
COc1cccc(C(NC2=NCCC=N2)c2cc3c(cc2O)OCO3)c1O (configuration not stated)	inactive: 43 µM
CN(C)CCNC(=O)c1cccc2c(NC(CCCNC(=N)N)C(=O)O)c3ccccc3[n+](C)c12 (configuration not stated)	inactive: 91.6 µM
CCCCCCCCCCCCCCCC(=O)OC1C(O)C(O)C(O)C(O)C12CO2 (configuration not stated)	inactive: > 100 µM
COc1cc(C2c3cc4c(cc3[C@@H](Nc3cccc(CO)c3)C3COC(=O)[C@H]23)OCO4)cc(OC)c1O (some centres not stated)	inactive: 5.92 µM
CCOC(=O)C1=C(C#N)S(=O)(=O)c2c(oc(C)c2C)N1	inactive: > 100 µM
O=c1cc(-c2ccccc2)[nH]c2ccc(N3CCCC3)cc12	active: 0.0574 µM
c1ccc2c(c1)Oc1cccc3cccc-2c13	inactive: > 100 µM
COc1cc2c(c(OC)c1OC)-c1ccc(SC)c(=O)cc1[C@@H](OC(=O)c1ccncc1)CC2	active: < 0.01 µM
